# Data published in the supplement of paper PMC8728848.
# Some of the results follow.
# B1: Blon2468mut (Bifidobacterium longum) (protein)
# chain: MTFIKQMMPRYVASMTAGIVAAAMAATCAFAPVANADAVSPTQETIQSTGRHFMVYYRAWRDVTMKGVNTDLPDDNWISMYDIPYGVDVVNIFSYVPSGQEEQAQPFYDKLKSDYAPYLHSRGIKLVRGIDYTGVAVNGFRTFMKEQNKTESEATEADYDAYAKQVIDKYMISVGLDGLDIDMQAHPNDADVKISDNVIRALSKHIGPKSAKPDTTMFLYDTNGSYLNPFKNVAECFDYVAYQQYGSSSDRTARAAADYQPYIGNEFVPGLTFPEEGDMNNRWYDATEPYEESHFYQVASYVREHNLGGMFVYALDRDGRNYDEDLRRIVPSNLLWTKTAIAESEGMALDTAKTAANHYLDRMSLRQVIDDNAASADKARDMVGKAANLYETNKAVLGGDYGEGFSNTYDPTLEAGLLGIDISVLQQQIDKSSEIIGADTAESDAKTALRMARDAAIDGLTGKIYTADQVSAWSQALKAALDATVPVPTPDSTDQNGNRDKVTNHKVQGQPKQLSATGISTDIIVAVGVTLAIAGVALSLSRKLS
# Columns and labels:
# Assay in all cases: glycan array binding signal (z-score within array); higher = stronger binding
# Conditions in all cases: glycan notation: IUPAC condensed, linker removed
# [1] = target: Man(a1-2)Man(a1-3)[Man(a1-2)Man(a1-6)]Man(a1-6)[Man(a1-2)Man(a1-2)Man(a1-3)]Man(b1-4)GlcNAc(b1-4)GlcNAc
# Method in brief: (§1)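 Glycan array binding is given as a within-array Z-score, which can be read as non-binding when negative. The arrays, 3228 of them, came from the Consortium for Functional Glycomics database and were retained only where the protein sequence was available. Z-scores were averaged across arrays of the same protein sequence at different concentrations or buffers and across linkers.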
# [2] = target: Man(a1-2)Man(a1-3)[Man(a1-6)]Man(a1-6)[Man(a1-2)Man(a1-3)]Man(b1-4)GlcNAc(b1-4)GlcNAc
# Method in brief: as §1
# [3] = target: Man(a1-2)Man(a1-6)[Man(a1-3)]Man(a1-6)[Man(a1-2)Man(a1-2)Man(a1-3)]Man
# Method in brief: as §1
# [4] = target: Man(a1-2)Man(a1-6)[Man(a1-3)]Man(a1-6)[Man(a1-2)Man(a1-2)Man(a1-3)]Man(b1-4)GlcNAc(b1-4)GlcNAc
# Method in brief: as §1
# [5] = target: Man(a1-3)[Man(a1-6)]Man
# Method in brief: as §1
# [6] = target: Man(a1-3)[Man(a1-6)]Man(a1-6)[Man(a1-2)Man(a1-3)]Man(b1-4)GlcNAc(b1-4)GlcNAc
# Method in brief: as §1
# [7] = target: Man(a1-3)[Man(a1-6)]Man(a1-6)[Man(a1-3)]Man
# Method in brief: as §1
# [8] = target: Man(a1-3)[Man(a1-6)]Man(a1-6)[Man(a1-3)]Man(b1-4)GlcNAc(b1-4)GlcNAc
# Method in brief: as §1
# [9] = target: Man(a1-3)[Man(a1-6)]Man(b1-4)GlcNAc(b1-4)GlcNAc
# Method in brief: as §1
# [10] = target: Man(a1-3)[Man(a1-6)]Man(b1-4)GlcNAc(b1-4)[Fuc(a1-6)]GlcNAc
# Method in brief: as §1
# [11] = target: Man(a1-6)Man
# Method in brief: as §1
# [12] = target: Man(b1-4)GlcNAc
# Method in brief: as §1
# [13] = target: MurNAc(b1-4)GlcNAc
# Method in brief: as §1
# [14] = target: Neu5Ac(a2-3)Gal
# Method in brief: as §1
# [15] = target: Neu5Ac(a2-3)Gal(b1-3)GalNAc
# Method in brief: as §1
# [16] = target: Neu5Ac(a2-3)Gal(b1-3)GalNAc(b1-3)Gal(a1-4)Gal(b1-4)Glc
# Method in brief: as §1
# [17] = target: Neu5Ac(a2-3)Gal(b1-3)GalNAc(b1-4)[Neu5Ac(a2-3)]Gal(b1-4)Glc
# Method in brief: as §1
# [18] = target: Neu5Ac(a2-3)Gal(b1-3)GalNAc(b1-4)[Neu5Ac(a2-8)Neu5Ac(a2-3)]Gal(b1-4)Glc
# Method in brief: as §1
# [19] = target: Neu5Ac(a2-3)Gal(b1-3)GalNAc6S
# Method in brief: as §1
# [20] = target: Neu5Ac(a2-3)Gal(b1-3)GlcNAc
# Method in brief: as §1
# [21] = target: Neu5Ac(a2-3)Gal(b1-3)GlcNAc(b1-2)Man
# Method in brief: as §1
# [22] = target: Neu5Ac(a2-3)Gal(b1-3)GlcNAc(b1-2)Man(a1-3)[GlcNAc(b1-4)][Neu5Ac(a2-3)Gal(b1-3)GlcNAc(b1-2)Man(a1-6)]Man(b1-4)GlcNAc(b1-4)GlcNAc
# Method in brief: as §1
# [23] = target: Neu5Ac(a2-3)Gal(b1-3)GlcNAc(b1-2)Man(a1-3)[Neu5Ac(a2-3)Gal(b1-3)GlcNAc(b1-2)Man(a1-6)]Man(b1-4)GlcNAc(b1-4)GlcNAc
# Method in brief: as §1
# [24] = target: Neu5Ac(a2-3)Gal(b1-3)GlcNAc(b1-3)Gal(b1-3)GlcNAc
# Method in brief: as §1
# [25] = target: Neu5Ac(a2-3)Gal(b1-3)GlcNAc(b1-3)Gal(b1-4)GlcNAc
# Method in brief: as §1
# [26] = target: Neu5Ac(a2-3)Gal(b1-3)GlcNAc(b1-3)GalNAc
# Method in brief: as §1
# [27] = target: Neu5Ac(a2-3)Gal(b1-3)GlcNAc(b1-4)Gal(b1-4)Glc
# Method in brief: as §1
# [28] = target: Neu5Ac(a2-3)Gal(b1-3)GlcNAc(b1-6)GalNAc
# Method in brief: as §1
# [29] = target: Neu5Ac(a2-3)Gal(b1-3)GlcNAc6S
# Method in brief: as §1
# [30] = target: Neu5Ac(a2-3)Gal(b1-3)[Fuc(a1-4)]GlcNAc
# Method in brief: as §1
binder,measurement,setting,value
B1,glycan array binding signal (z-score),[1],-0.037
same,glycan array binding signal (z-score),[2],-0.083
same,glycan array binding signal (z-score),[3],-0.044
same,glycan array binding signal (z-score),[4],-0.041
same,glycan array binding signal (z-score),[5],-0.056
same,glycan array binding signal (z-score),[6],-0.054
same,glycan array binding signal (z-score),[7],0.323
same,glycan array binding signal (z-score),[8],-0.065
same,glycan array binding signal (z-score),[9],6.11
same,glycan array binding signal (z-score),[10],22.6
same,glycan array binding signal (z-score),[11],-0.057
same,glycan array binding signal (z-score),[12],-0.072
same,glycan array binding signal (z-score),[13],-0.087
same,glycan array binding signal (z-score),[14],-0.061
same,glycan array binding signal (z-score),[15],-0.088
same,glycan array binding signal (z-score),[16],-0.08
same,glycan array binding signal (z-score),[17],-0.087
same,glycan array binding signal (z-score),[18],-0.082
same,glycan array binding signal (z-score),[19],-0.077
same,glycan array binding signal (z-score),[20],-0.075
same,glycan array binding signal (z-score),[21],-0.092
same,glycan array binding signal (z-score),[22],-0.075
same,glycan array binding signal (z-score),[23],-0.047
same,glycan array binding signal (z-score),[24],-0.074
same,glycan array binding signal (z-score),[25],-0.094
same,glycan array binding signal (z-score),[26],-0.031
same,glycan array binding signal (z-score),[27],-0.062
same,glycan array binding signal (z-score),[28],-0.049
same,glycan array binding signal (z-score),[29],-0.058
same,glycan array binding signal (z-score),[30],-0.078
